# Test results from the supplement of paper PMC6206098.
# ± gives the uncertainty stated by the source. The sequences are guide strands of siRNAs; only the seed at positions 2 to 7 varies.
# Experiments:
# H460 = assay: cell viability relative to lipid-only control; higher = less toxic; settings: concentration: 10 nM; 96 h; Homo sapiens
# M565 = assay: as above; settings: concentration: 10 nM; 96 h; Mus musculus
# HeyA8 = assay: as above; settings: concentration: 10 nM; 96 h; Homo sapiens
# 3LL = assay: cell viability relative to siNT1 control; HeyA8 human ovarian and H460 human lung cancer; M565 mouse liver and 3LL mouse lung cancer; siNT1 is a non-toxic control siRNA; higher = less toxic; settings: concentration: 10 nM; 96 h; Mus musculus
# 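Wherever cell viability relative to lipid-only control is given: reverse lipid transfection in 384-well plates, in triplicate, of duplexes on a non-toxic 19mer backbone with passenger strand 2′-O-methylated at positions 1 and 2, luminescence viability read-out.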
# 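Wherever cell viability relative to siNT1 control is given: Luminescence-based viability of cells reverse transfected in 384-well plates with lipid-complexed siRNAs built on a non-toxic 19mer backbone whose passenger strand carries 2′-O-methyl groups at positions 1 and 2, triplicates.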
sequence,measurement,setting,value
UUUUUCUACAUGUAAACCAAA,cell viability,H460,64.9 ± 2.1%
same,cell viability,M565,109 ± 8.4%
same,cell viability,HeyA8,70.9 ± 5.5%
same,cell viability,3LL,96.6 ± 6.2%
UAUGCUGACAUGUAAACCAAA,cell viability,H460,70.2 ± 4.4%
same,cell viability,M565,77.8 ± 19%
same,cell viability,HeyA8,97.8 ± 3.7%
same,cell viability,3LL,106 ± 19%
UGUUAGAACAUGUAAACCAAA,cell viability,H460,82.6 ± 11%
same,cell viability,M565,73.9 ± 20%
same,cell viability,HeyA8,63.2 ± 11%
same,cell viability,3LL,58.2 ± 7.3%
UUGCACGACAUGUAAACCAAA,cell viability,H460,69.4 ± 4.2%
same,cell viability,M565,72 ± 13%
same,cell viability,HeyA8,87.6 ± 4.4%
same,cell viability,3LL,75.1 ± 6.3%
UUCGUUUACAUGUAAACCAAA,cell viability,H460,78.2 ± 23%
same,cell viability,M565,101 ± 3.9%
same,cell viability,HeyA8,93.4 ± 9.8%
same,cell viability,3LL,86.9 ± 14%
UCUGCACACAUGUAAACCAAA,cell viability,H460,67.3 ± 3.7%
same,cell viability,M565,55.3 ± 11%
same,cell viability,HeyA8,84 ± 7.3%
same,cell viability,3LL,89.8 ± 12%
UAAGUCGACAUGUAAACCAAA,cell viability,H460,81.7 ± 22%
same,cell viability,M565,62.5 ± 9.7%
same,cell viability,HeyA8,81.2 ± 18%
same,cell viability,3LL,80.9 ± 12%
UGGAAGAACAUGUAAACCAAA,cell viability,H460,53.7 ± 7.8%
same,cell viability,M565,18.8 ± 3.3%
same,cell viability,HeyA8,62.5 ± 2%
same,cell viability,3LL,82.4 ± 4.9%
UACUAGAACAUGUAAACCAAA,cell viability,H460,64.3 ± 9.4%
same,cell viability,M565,79.2 ± 12%
same,cell viability,HeyA8,82.2 ± 4.8%
same,cell viability,3LL,100 ± 15%
UGCCUCAACAUGUAAACCAAA,cell viability,H460,35.9 ± 5.3%
same,cell viability,M565,19.1 ± 5.6%
same,cell viability,HeyA8,63.5 ± 8.3%
same,cell viability,3LL,72.2 ± 6.9%
UGGAGGAACAUGUAAACCAAA,cell viability,H460,13.3 ± 3.8%
same,cell viability,M565,18.4 ± 4.1%
same,cell viability,HeyA8,3.02 ± 0.15%
same,cell viability,3LL,13.6 ± 4.4%
UGAAUAGACAUGUAAACCAAA,cell viability,H460,79.7 ± 17%
same,cell viability,M565,40.3 ± 4%
same,cell viability,HeyA8,96.4 ± 8.4%
same,cell viability,3LL,106 ± 14%
UAUGCAUACAUGUAAACCAAA,cell viability,H460,79.7 ± 17%
same,cell viability,M565,105 ± 11%
same,cell viability,HeyA8,82.3 ± 3.9%
same,cell viability,3LL,92.9 ± 16%
UACUAGCACAUGUAAACCAAA,cell viability,H460,29.3 ± 3.5%
same,cell viability,M565,19.3 ± 4.3%
same,cell viability,HeyA8,17.3 ± 1.7%
same,cell viability,3LL,11.6 ± 2.3%
UGGAGUAACAUGUAAACCAAA,cell viability,H460,63.7 ± 8.3%
same,cell viability,M565,59.1 ± 9.1%
same,cell viability,HeyA8,81.8 ± 6%
same,cell viability,3LL,105 ± 17%
UUCACUGACAUGUAAACCAAA,cell viability,H460,59.8 ± 9.9%
same,cell viability,M565,133 ± 14%
same,cell viability,HeyA8,90.4 ± 14%
same,cell viability,3LL,98 ± 14%
UUCCGUCACAUGUAAACCAAA,cell viability,H460,70.9 ± 1.2%
same,cell viability,M565,38.3 ± 4.9%
same,cell viability,HeyA8,89.4 ± 12%
same,cell viability,3LL,51.3 ± 5.6%
UCGUAUUACAUGUAAACCAAA,cell viability,H460,78.5 ± 18%
same,cell viability,M565,72.3 ± 6.7%
same,cell viability,HeyA8,88.4 ± 3.3%
same,cell viability,3LL,86.4 ± 9.5%
UGUCUAGACAUGUAAACCAAA,cell viability,H460,50.8 ± 6.1%
same,cell viability,M565,56 ± 5.5%
same,cell viability,HeyA8,58.3 ± 2.2%
same,cell viability,3LL,34 ± 6.5%
UAUCCUCACAUGUAAACCAAA,cell viability,H460,35.1 ± 1.8%
same,cell viability,M565,49.4 ± 9.6%
same,cell viability,HeyA8,48.8 ± 7%
same,cell viability,3LL,36.4 ± 3.8%
UACGAAUACAUGUAAACCAAA,cell viability,H460,94.6 ± 26%
same,cell viability,M565,76.4 ± 10%
same,cell viability,HeyA8,87.5 ± 15%
same,cell viability,3LL,90.3 ± 12%
UUUGUGCACAUGUAAACCAAA,cell viability,H460,84.9 ± 5.6%
same,cell viability,M565,69 ± 7.7%
same,cell viability,HeyA8,61 ± 3%
same,cell viability,3LL,81.2 ± 4.3%
UGAGCGGACAUGUAAACCAAA,cell viability,H460,32.3 ± 1.6%
same,cell viability,M565,15.1 ± 4.4%
same,cell viability,HeyA8,28.7 ± 11%
same,cell viability,3LL,53.5 ± 8.9%
UUGGGUUACAUGUAAACCAAA,cell viability,H460,63.6 ± 12%
same,cell viability,M565,64.9 ± 4.2%
same,cell viability,HeyA8,64.4 ± 4.5%
same,cell viability,3LL,20.4 ± 3.1%
UUUCCCUACAUGUAAACCAAA,cell viability,H460,64.2 ± 6.4%
same,cell viability,M565,77.6 ± 2.5%
same,cell viability,HeyA8,75.6 ± 4.3%
same,cell viability,3LL,83.9 ± 13%
UAUUGAGACAUGUAAACCAAA,cell viability,H460,74.2 ± 3.4%
same,cell viability,M565,75.7 ± 7.8%
same,cell viability,HeyA8,96 ± 11%
same,cell viability,3LL,94.6 ± 32%
UUCAUGUACAUGUAAACCAAA,cell viability,H460,52.5 ± 8.8%
same,cell viability,M565,30.6 ± 5.3%
same,cell viability,HeyA8,70.1 ± 5.5%
same,cell viability,3LL,48.4 ± 12%
UCCAGUAACAUGUAAACCAAA,cell viability,H460,77.7 ± 20%
same,cell viability,M565,46.9 ± 7%
same,cell viability,HeyA8,82.6 ± 4%
same,cell viability,3LL,106 ± 22%
UCCGGUCACAUGUAAACCAAA,cell viability,H460,31.8 ± 4.8%
same,cell viability,M565,42.7 ± 13%
same,cell viability,HeyA8,13.6 ± 1.5%
same,cell viability,3LL,56.6 ± 12%
UCUCCCGACAUGUAAACCAAA,cell viability,H460,54 ± 4.5%
same,cell viability,M565,74.9 ± 18%
same,cell viability,HeyA8,87.9 ± 6%
same,cell viability,3LL,94.3 ± 10%
UCUGGAAACAUGUAAACCAAA,cell viability,H460,72.5 ± 5.6%
same,cell viability,M565,62.3 ± 9.7%
same,cell viability,HeyA8,90.1 ± 3.6%
same,cell viability,3LL,96.2 ± 12%
UGAAUCUACAUGUAAACCAAA,cell viability,H460,69.4 ± 8.7%
same,cell viability,M565,44.2 ± 3.3%
same,cell viability,HeyA8,61.01 ± 0.47%
same,cell viability,3LL,73 ± 18%
UGGUGAAACAUGUAAACCAAA,cell viability,H460,49.8 ± 5.9%
same,cell viability,M565,33.8 ± 10%
same,cell viability,HeyA8,41.8 ± 3.9%
same,cell viability,3LL,46.3 ± 4.3%
UGCCGUGACAUGUAAACCAAA,cell viability,H460,64.2 ± 5.3%
same,cell viability,M565,24.5 ± 2.4%
same,cell viability,HeyA8,73.9 ± 2.6%
same,cell viability,3LL,78.6 ± 9.6%
UUAAAGAACAUGUAAACCAAA,cell viability,H460,72.8 ± 9.6%
same,cell viability,M565,80.6 ± 18%
same,cell viability,HeyA8,93.9 ± 2.3%
same,cell viability,3LL,96.7 ± 10%
UUACCGCACAUGUAAACCAAA,cell viability,H460,51.5 ± 2.9%
same,cell viability,M565,18.8 ± 6%
same,cell viability,HeyA8,81 ± 3.8%
same,cell viability,3LL,61.8 ± 3.9%
UAGAACGACAUGUAAACCAAA,cell viability,H460,68 ± 7.8%
same,cell viability,M565,75.7 ± 8.2%
same,cell viability,HeyA8,86.5 ± 9.2%
same,cell viability,3LL,86.6 ± 9.4%
UGUUAUUACAUGUAAACCAAA,cell viability,H460,66.3 ± 7.1%
same,cell viability,M565,66.1 ± 2%
same,cell viability,HeyA8,63.1 ± 6.7%
same,cell viability,3LL,95.1 ± 8.2%
UGAAAGCACAUGUAAACCAAA,cell viability,H460,40.1 ± 8.8%
same,cell viability,M565,13.2 ± 3.3%
same,cell viability,HeyA8,47.5 ± 1.4%
same,cell viability,3LL,56.5 ± 19%
UACCAGGACAUGUAAACCAAA,cell viability,H460,59.7 ± 2.3%
same,cell viability,M565,47.5 ± 9.4%
same,cell viability,HeyA8,63.4 ± 9.5%
same,cell viability,3LL,75.7 ± 3%
UGGGCCGACAUGUAAACCAAA,cell viability,H460,16.4 ± 5%
same,cell viability,M565,22.6 ± 4.1%
same,cell viability,HeyA8,3.33 ± 0.35%
same,cell viability,3LL,32.2 ± 3.4%
UUCUCUAACAUGUAAACCAAA,cell viability,H460,56.1 ± 7.5%
same,cell viability,M565,89.4 ± 11%
same,cell viability,HeyA8,99.2 ± 9.4%
same,cell viability,3LL,104 ± 10%
UUCUAUUACAUGUAAACCAAA,cell viability,H460,59.1 ± 4.9%
same,cell viability,M565,48.2 ± 8.8%
same,cell viability,HeyA8,81 ± 6.4%
same,cell viability,3LL,97.6 ± 9.6%
UCGCGACACAUGUAAACCAAA,cell viability,H460,69.1 ± 16%
same,cell viability,M565,51.4 ± 5.7%
same,cell viability,HeyA8,19.4 ± 3%
same,cell viability,3LL,74.4 ± 14%
UGGGUAAACAUGUAAACCAAA,cell viability,H460,33.3 ± 4.8%
same,cell viability,M565,40.1 ± 8.6%
same,cell viability,HeyA8,31.2 ± 2.2%
same,cell viability,3LL,71.4 ± 1.9%
UUCCGGGACAUGUAAACCAAA,cell viability,H460,69.2 ± 3.4%
same,cell viability,M565,29.8 ± 6.2%
same,cell viability,HeyA8,71.7 ± 7.5%
same,cell viability,3LL,49 ± 3.6%
UUGGCUAACAUGUAAACCAAA,cell viability,H460,102 ± 11%
same,cell viability,M565,68.4 ± 6.6%
same,cell viability,HeyA8,81.5 ± 3.1%
same,cell viability,3LL,99.8 ± 7.6%
UAACUCAACAUGUAAACCAAA,cell viability,H460,67.7 ± 22%
same,cell viability,M565,63.9 ± 6.6%
same,cell viability,HeyA8,80.8 ± 11%
same,cell viability,3LL,85.3 ± 5.4%
